Compound in this experiment: COc1ccc(C2=N[C@@H](c3ccc(Cl)cc3)[C@@H](c3ccc(Cl)cc3)N2C(=O)N2CCNC(=O)C2)c(OC(C)C)c1 [Nutlin-3a]
Description: Viability of human cancer cell lines after 72 h of drug (GDSC screen). On the procedure: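 Human cancer cell lines in 384-well plates, medium with 10% serum, drug for 72 h over a 256-fold dose range (nine 2-fold or five 4-fold steps up to the top dose). Adherent lines were fixed and stained with the nucleic acid dye Syto60, suspension lines read with resazurin; signal relative to control wells, capped at 0 and 100%. One two-parameter sigmoid per drug and line, fitted in a mixed model over all curves with the slope shared within a line.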

The source of these data is the supplement of paper PMC4967469.

IC50 is the fitted dose that halves viability relative to control wells, and lower means more sensitive; where the fit passes the top or lowest dose, that dose stands as a limit. AUC is the area under the same curve over the 256-fold range up to the top dose, as a fraction; the more sensitive the line, the further below 1.

With SW626 (ovary, adherent, top dose 8 µM), the AUC was found to be 0.984 and the IC50 was greater than 8 µM.
On the same counts, the results for “SW684 (fibrosarcoma, adherent, top dose 8 µM)” are 0.981 and greater than 8 µM.
The matching figures for SW756 (cervix, adherent, top dose 8 µM): 0.982 and greater than 8 µM.
As for “SW780 (bladder, adherent, top dose 8 µM)”, the AUC was found to be 0.745 and the IC50 is 2.72 µM.
The matching figures for “SW900 (lung squamous cell carcinoma, adherent, top dose 4 µM)”: 0.895 and greater than 4 µM.
On the same counts, the results for “SW948 (large intestine, adherent, top dose 8 µM)” are 0.977 and greater than 8 µM.
On the same counts, the results for “SW954 (urogenital system, adherent, top dose 8 µM)” are 0.78 and 3.33 µM.
In the case of “SW962 (urogenital system, adherent, top dose 8 µM)”, the AUC was 0.958 and the IC50 is greater than 8 µM.
As to “SW982 (soft tissue, adherent, top dose 8 µM)”, the AUC was found to be 0.794 and the IC50 worked out at 3.8 µM.
On the same counts, the results for “SW1271 (small cell lung carcinoma, adherent, top dose 8 µM)” are 0.982 and greater than 8 µM.
On the same counts, the results for “SW1417 (large intestine, adherent, top dose 8 µM)” are 0.958 and greater than 8 µM.
The matching figures for “SW1573 (lung adenocarcinoma, adherent, top dose 8 µM)”: 0.907 and greater than 8 µM.
Regarding “SW1710 (bladder, adherent, top dose 8 µM)”, the AUC came out at 0.982 and the IC50 was greater than 8 µM.
Take “SW1783 (glioma, adherent, top dose 8 µM)”: the AUC turned out to be 0.991 and the 50% inhibitory concentration (IC50) was greater than 8 µM.
On the same counts, the results for SiHa (cervix, adherent, top dose 8 µM) are 0.987 and greater than 8 µM.
With T47D (breast, adherent, top dose 8 µM), the AUC was found to be 0.937 and the IC50 was greater than 8 µM.
On to “T84 (large intestine, adherent, top dose 8 µM)”, for which the AUC worked out at 0.989 and the IC50 was greater than 8 µM.
Take T98G (glioma, adherent, top dose 8 µM): the AUC was determined as 0.978 and the concentration for half-maximal inhibition (IC50) was greater than 8 µM.
With “T-T (oesophagus, adherent, top dose 8 µM)”, the AUC is 0.985 and the IC50 was greater than 8 µM.
The matching figures for “TC-71 (Ewing sarcoma, adherent, top dose 8 µM)”: 0.992 and greater than 8 µM.
On the same counts, the results for “TC-YIK (cervix, suspension, top dose 8 µM)” are 0.991 and greater than 8 µM.
As for “TCCSUP (bladder, adherent, top dose 8 µM)”, the AUC came out at 0.971 and the IC50 is greater than 8 µM.
The matching figures for “TE-1 (oesophagus, adherent, top dose 8 µM)”: 0.982 and greater than 8 µM.
With “TE-4 (oesophagus, adherent, top dose 8 µM)”, the AUC worked out at 0.986 and the IC50 was greater than 8 µM.
On the same counts, the results for “TE-5 (oesophagus, adherent, top dose 8 µM)” are 0.972 and greater than 8 µM.
Regarding “TE-6 (oesophagus, adherent, top dose 8 µM)”, the AUC was 0.973 and the IC50 was greater than 8 µM.
With “TE-8 (oesophagus, adherent, top dose 8 µM)”, the AUC stood at 0.979 and the IC50 was greater than 8 µM.
Consider “TE-9 (oesophagus, adherent, top dose 8 µM)”, for which the AUC came to 0.98 and the IC50 is greater than 8 µM.
The matching figures for “TE-10 (oesophagus, adherent, top dose 8 µM)”: 0.984 and greater than 8 µM.
As for “TE-11 (oesophagus, adherent, top dose 8 µM)”, the AUC turned out to be 0.962 and the IC50 was greater than 8 µM.
On the same counts, the results for “TE-12 (oesophagus, suspension, top dose 8 µM)” are 0.982 and greater than 8 µM.
On the same counts, the results for “TE-15 (oesophagus, suspension, top dose 8 µM)” are 0.978 and greater than 8 µM.
The matching figures for “TGBC1TKB (biliary tract, adherent, top dose 8 µM)”: 0.986 and greater than 8 µM.
Regarding “TGBC11TKB (stomach, adherent, top dose 8 µM)”, the AUC is 0.992 and the IC50 is greater than 8 µM.
Take “TGW (neuroblastoma, adherent, top dose 8 µM)”: the AUC stood at 0.983 and the IC50 is greater than 8 µM.
For “THP-1 (acute myeloid leukaemia, suspension, top dose 8 µM)”, the AUC is 0.991 and the IC50 was greater than 8 µM.
The matching figures for TK10 (kidney, adherent, top dose 8 µM): 0.967 and greater than 8 µM.
On the same counts, the results for “TK (B-cell lymphoma, suspension, top dose 8 µM)” are 0.99 and greater than 8 µM.
The matching figures for “TMK-1 (stomach, adherent, top dose 8 µM)”: 0.986 and greater than 8 µM.
With “TOV-21G (ovary, adherent, top dose 8 µM)”, the AUC was determined as 0.719 and the IC50 stood at 2.22 µM.
With “TOV-112D (ovary, adherent, top dose 8 µM)”, the AUC stood at 0.964 and the IC50 is greater than 8 µM.
On the same counts, the results for “TT2609-C02 (thyroid, adherent, top dose 8 µM)” are 0.969 and greater than 8 µM.
With TT (thyroid, adherent, top dose 4 µM), the AUC stood at 0.909 and the IC50 is greater than 4 µM.
The matching figures for “TUR (B-cell lymphoma, suspension, top dose 8 µM)”: 0.983 and greater than 8 µM.
On the same counts, the results for TYK-nu (ovary, adherent, top dose 8 µM) are 0.975 and greater than 8 µM.
On the same counts, the results for U031 (kidney, adherent, top dose 4 µM) are 0.96 and greater than 4 µM.
With “U-118-MG (glioma, adherent, top dose 8 µM)”, the AUC is 0.98 and the IC50 was greater than 8 µM.
With “U-266 (myeloma, semi-adherent, top dose 8 µM)”, the AUC is 0.962 and the IC50 was greater than 8 µM.
Consider “U-698-M (B-cell leukaemia, suspension, top dose 8 µM)”, for which the AUC was 0.962 and the IC50 was greater than 8 µM.
The matching figures for “UACC-62 (melanoma, adherent, top dose 8 µM)”: 0.899 and greater than 8 µM.
On the same counts, the results for “UACC-257 (melanoma, adherent, top dose 8 µM)” are 0.879 and greater than 8 µM.
For “UACC-893 (breast, adherent, top dose 4 µM)”, the AUC was 0.968 and the IC50 is greater than 4 µM.
On the same counts, the results for “UWB1.289 (ovary, adherent, top dose 8 µM)” are 0.975 and greater than 8 µM.
The matching figures for “VA-ES-BJ (soft tissue, adherent, top dose 8 µM)”: 0.748 and 2.7 µM.
In the case of “VAL (B-cell lymphoma, suspension, top dose 8 µM)”, the AUC was 0.843 and the IC50 turned out to be 5.69 µM.
On the same counts, the results for “VCaP (prostate, adherent, top dose 8 µM)” are 0.985 and greater than 8 µM.
The matching figures for “VM-CUB-1 (bladder, adherent, top dose 4 µM)”: 0.938 and greater than 4 µM.
On the same counts, the results for “VMRC-LCD (lung adenocarcinoma, adherent, top dose 8 µM)” are 0.993 and greater than 8 µM.
For the cell line “VMRC-RCZ (kidney, adherent, top dose 8 µM)”, the AUC is 0.977 and the IC50 is greater than 8 µM.
As to “WIL2-NS (lymphoid neoplasm, suspension, top dose 8 µM)”, the AUC worked out at 0.984 and the IC50 was greater than 8 µM.
On the same counts, the results for “WM35 (melanoma, adherent, top dose 8 µM)” are 0.742 and 2.49 µM.
On the same counts, the results for “WM793B (melanoma, adherent, top dose 8 µM)” are 0.807 and 4.64 µM.
The matching figures for “WM1552C (melanoma, adherent, top dose 8 µM)”: 0.934 and greater than 8 µM.
In the case of “WM-115 (melanoma, adherent, top dose 8 µM)”, the AUC was determined as 0.813 and the IC50 turned out to be 5.58 µM.
“WSU-DLCL2 (B-cell lymphoma, suspension, top dose 8 µM)”: the AUC is 0.99 and the IC50 was greater than 8 µM.
Consider “WSU-NHL (lymphoid neoplasm, suspension, top dose 8 µM)”, for which the AUC was determined as 0.96 and the IC50 was greater than 8 µM.
On the same counts, the results for “YAPC (pancreas, adherent, top dose 8 µM)” are 0.982 and greater than 8 µM.
As for YH-13 (glioma, adherent, top dose 8 µM), the AUC was found to be 0.971 and the half-inhibitory concentration (IC50) is greater than 8 µM.
The matching figures for YKG-1 (glioma, adherent, top dose 8 µM): 0.97 and greater than 8 µM.
As for “YT (lymphoid neoplasm, suspension, top dose 8 µM)”, the AUC was 0.866 and the IC50 was 5.42 µM.

Broadly, the IC50 is the midpoint of a concentration-inhibition curve.
